Molecular target: T1, GroEL D398A-RW (E. coli, UniProt P0A6F5, D398A | R231W)
T1 construct: GroEL, E. coli, D398A mutant (greatly diminished ATPase activity) with the R231W mutation; Made by Quikchange site directed mutagenesis
Experiment: FRET or BRET; stopped-flow intermolecular FRET from the apical domain tryptophan of the GroEL mutant to prebound acid-unfolded AEDANS-GroELwt (equimolar); decrease of FRET after addition of ATP and GroES
Details: both partners purified

k of PhaseFRET2 (rate of release of the bound unfolded protein): 0.18 ± 0.034 s⁻¹
k of PhaseFRET (rate of release of the bound unfolded protein): 1.8 ± 0.46 s⁻¹
B1: AEDANS-labelled, acid-unfolded wild type GroEL (natural protein)
chain: not shown
modifications: AEDANS label from IAEDANS, 0.2 to 0.5 label per GroELwt subunit; labelled residues not stated
notes: wild type GroEL, E. coli, used unfolded as a model substrate protein; Stood in the assay as an unfolded subunit, not as the oligomer; also called AEDANS-GroELwt; GroELwt; source: GroELwt labelled with IAEDANS, denatured in 20 mM glycine-HCl buffer, pH 2.0, for 1 h at 25°C

— publication PMC3813556, “Probing the Dynamic Process of Encapsulation in Escherichia coli GroEL” (PLoS ONE, 2013)
